Test results as given in PubChem BioAssay AID624172 (National Center for Advancing Translational Sciences (NCATS), 2012).
The campaign covered roughly 380,000 compounds. About 25 (0.007%) were called active. This list was built around the results that the source calls inconclusive (neither active nor inactive); the mix of calls is not that of the screen. Calls follow the shape of the dose curve; as a rule, active = well fitted activation curve with a large enough effect; inconclusive = small, poorly fitted or top-dose-only effect; inactive = no such curve, though single readings can be large or run the other way. Potencies of inconclusive entries are left out as doubtful fits.

target: Glucagon-like peptide 1 receptor (Homo sapiens) (UniProt P43220); experiment: qHTS of GLP-1 Receptor Agonists; conditions: HEK293 GLP-1R CRE-luciferase, luminescence, 4-6 h, cells express a hypersensitive GLP-1R form; activation: at 45.6 µM (top of the series) unless noted; as to activation: % of control where 0% means no effect
Chain of UniProt P43220 (P43220 whole entry, looked up): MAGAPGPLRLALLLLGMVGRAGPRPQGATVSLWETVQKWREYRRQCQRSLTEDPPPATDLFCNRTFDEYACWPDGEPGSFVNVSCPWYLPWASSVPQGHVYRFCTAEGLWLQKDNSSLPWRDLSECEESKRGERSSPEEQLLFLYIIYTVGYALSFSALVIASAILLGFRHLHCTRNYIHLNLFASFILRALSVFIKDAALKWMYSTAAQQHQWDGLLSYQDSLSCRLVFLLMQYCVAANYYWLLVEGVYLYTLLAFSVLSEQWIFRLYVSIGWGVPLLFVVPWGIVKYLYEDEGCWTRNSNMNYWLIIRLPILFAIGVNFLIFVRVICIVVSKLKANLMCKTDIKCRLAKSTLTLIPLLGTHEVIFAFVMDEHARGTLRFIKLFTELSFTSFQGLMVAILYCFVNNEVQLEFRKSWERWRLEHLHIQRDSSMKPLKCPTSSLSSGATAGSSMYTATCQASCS
Potency is read from the fitted curve at half-maximal effect; tags tell the direction and shape of the fitted curve.

SMILES | activation | Potency
CC(C)(C)c1ccc(/C=C2/SC(N3CCCC3)=NC2=O)cc1 | inconclusive: 68.9% [activator] | 
COc1ccccc1N1CCN(C(=O)/C=C/c2ccc3c(c2)OCO3)CC1 |  | inconclusive [activator, single point]
COc1cc2c(cc1OC)C(C)N(C(=O)C1COc3ccccc3O1)CC2 (stereo not given) |  | inconclusive [activator, full curve, poor fit]
COc1cc(/C=C/C(=O)NC(C)C2CC3CCC2C3)cc(OC)c1OC (stereo not given) |  | inconclusive [activator, partial curve, poor fit]
CC(OC(=O)c1cc(=O)[nH]c2ccccc12)c1ccccc1 (stereo not given) |  | inconclusive [activator, partial curve, poor fit]
CN(C)c1ccc2c(=O)cc[nH]c2c1 |  | inactive
O=C(c1cc(-c2ccc(Cl)c(Cl)c2)on1)N1CCOCC1 |  | inactive
Nc1ccc(C(=O)Nc2ccccc2N)cc1 |  | inconclusive [activator, partial curve, poor fit]
COc1ccc(OC)c(Nc2nc(-c3sc(C)nc3C)cs2)c1 |  | inconclusive [activator, partial curve]
COc1cc(C(=O)OCCc2cc3ccccc3c(=O)o2)cc(OC)c1OC |  | inconclusive [activator, partial curve, poor fit]
COC(=O)c1cc(CSc2ncnc3sccc23)oc1C |  | inconclusive [activator, single point]
CNC(=O)c1cc(S(=O)(=O)NCc2ccncc2)ccc1OC |  | inactive
Cc1ccccc1Nc1c(-c2ccc(N3CCOCC3)cc2)nc2cnccn12 |  | inconclusive [activator, partial curve, poor fit]
O=C(c1cc2c(s1)CCCCC2)N1CCN(c2ncccn2)CC1 |  | inconclusive [activator, partial curve, poor fit]
COc1ccc(/C=N/NC(=O)C(C)n2cnc3ccccc3c2=O)cc1OC (stereo not given) |  | inconclusive [activator, single point]
COc1ccccc1-c1nnc(NC(=O)CCS(=O)(=O)c2ccccc2)o1 |  | inactive
COc1cc(O)c(CCC(=O)c2cc(OC)c(OC)c(OC)c2)c(OC)c1 |  | inconclusive [activator, single point]
CS(=O)(=O)Nc1ccc([N+](=O)[O-])cc1Oc1ccccc1 |  | inconclusive [activator, single point]
Cn1c(SCc2ccccc2)nc(N)c(N=O)c1=O |  | inactive
O=C(CSc1cccc2cccnc12)Nc1cc(C(=O)O)cc(C(=O)O)c1 |  | inactive
Cn1c(=O)[nH]c(=O)c2c1nc(N1CCCCC1)n2CCCSc1nnnn1-c1ccccc1 |  | inconclusive [activator, partial curve, poor fit]
Cc1c(C(=O)c2ccc(N(C)C)cc2)c2ccccn2c1CCC#N |  | inconclusive [activator, partial curve, poor fit]
COC(=O)c1sc2nc[nH]c(=O)c2c1C |  | inactive

SMILES | activation | Potency
CCC(=O)Nc1sc2c(c1C#N)CCCCC2 |  | inconclusive [activator, partial curve]
CCOC(=O)C1CCN(C(=O)c2cc3c(-c4ccc(OC)c(OC)c4)nn(C)c3s2)CC1 |  | inconclusive [activator, partial curve, poor fit]
OC(c1ccc(F)cc1)c1nc(-c2cnc3ccccc3c2)cs1 (stereo not given) |  | inconclusive [activator, partial curve, poor fit]
CCOC(=O)C1=C(COC(=O)/C=C/c2ccccc2Cl)NC(=O)NC1C (stereo not given) |  | inconclusive [activator, single point]
CCn1nc(C)c(/C=N/NC(=O)c2c[nH]c3ccccc23)c1C |  | inactive
Cc1nn(C(C)(C)C)c(OC(=O)C2CCCC2)c1S(=O)(=O)c1ccccc1 |  | inactive
O=S(CC(O)COCc1ccc(Cl)cc1)c1ccccn1 (stereo not given) |  | inactive
CC(C)CN(C(=O)COC(=O)CCC(=O)c1ccc(Cl)cc1)c1c(N)n(Cc2ccccc2)c(=O)[nH]c1=O | inconclusive: 35.4% [activator] | 
CCCCCCCc1nc2sc3c(c2c(=O)n1N)CC(C)(C)OC3 |  | inactive
CCOC(=O)c1c(C)c(C(=O)N2CCCCCC2)c(C)n1C |  | inconclusive [activator, single point]
N#Cc1cc(Oc2ccc(Cl)cc2)c(N2CCOCC2)cc1C#N |  | inconclusive [activator, partial curve, poor fit]
COC(=O)c1ccccc1OCCCOc1ccc(C=O)cc1OC |  | inconclusive [activator, single point]
COC(=O)c1ccc(C)c(-n2c(=O)n(Cc3ccccc3)c(=O)c3[nH]cnc32)c1 |  | inconclusive [activator, partial curve, poor fit]
C=CCSc1nc2c(c(=O)[nH]c(=O)n2C)n1CC |  | inconclusive [activator, partial curve, poor fit]
CCCCC(=O)Nc1cnc(NC(=O)c2ccco2)cc1C |  | inactive
CCOC(=O)c1sc(N)c(C(=O)Nc2ccccc2OC)c1C |  | inconclusive [activator, partial curve, poor fit]
COc1ccc(C2=Nn3c(nnc3-c3ccco3)SC2)cc1 |  | inconclusive [activator, single point]
Cc1ccc(C(=O)OCc2nc(N)nc(Nc3ccccc3C)n2)cc1 |  | inconclusive [activator, partial curve, poor fit]
O=S1(=O)CCN2C=C(Br)C=C(Br)C2=N1 |  | inactive
CC(C)COc1ccc(C(=O)N(CC(=O)Nc2ccccc2C(F)(F)F)Cc2ccco2)cc1 |  | inactive
CCOC(=O)/C(=C\C=C1/Sc2ccccc2N1CC)C(C)=O |  | inconclusive [activator, partial curve]
CC(C)c1cc(C(N)=O)c(NC(=O)C2CCC2)s1 |  | inactive
